# Data reported in paper PMC4336329 (PLoS ONE, 2015).
# Hit rate of the full screen: of about 310,000 compounds, about 2,200 (0.71%) showed an effect of 50% or more. The effect is printed as a negative number. The list shows a part of the results.
# Molecular target: human ether-à-go-go-related gene (hERG) potassium channel (human, UniProt Q12809)
# Experiment: primary screen, population patch clamp on CHO cells stably expressing hERG
# Sequence of human ether-à-go-go-related gene (hERG) potassium channel (Q12809 whole entry, looked up): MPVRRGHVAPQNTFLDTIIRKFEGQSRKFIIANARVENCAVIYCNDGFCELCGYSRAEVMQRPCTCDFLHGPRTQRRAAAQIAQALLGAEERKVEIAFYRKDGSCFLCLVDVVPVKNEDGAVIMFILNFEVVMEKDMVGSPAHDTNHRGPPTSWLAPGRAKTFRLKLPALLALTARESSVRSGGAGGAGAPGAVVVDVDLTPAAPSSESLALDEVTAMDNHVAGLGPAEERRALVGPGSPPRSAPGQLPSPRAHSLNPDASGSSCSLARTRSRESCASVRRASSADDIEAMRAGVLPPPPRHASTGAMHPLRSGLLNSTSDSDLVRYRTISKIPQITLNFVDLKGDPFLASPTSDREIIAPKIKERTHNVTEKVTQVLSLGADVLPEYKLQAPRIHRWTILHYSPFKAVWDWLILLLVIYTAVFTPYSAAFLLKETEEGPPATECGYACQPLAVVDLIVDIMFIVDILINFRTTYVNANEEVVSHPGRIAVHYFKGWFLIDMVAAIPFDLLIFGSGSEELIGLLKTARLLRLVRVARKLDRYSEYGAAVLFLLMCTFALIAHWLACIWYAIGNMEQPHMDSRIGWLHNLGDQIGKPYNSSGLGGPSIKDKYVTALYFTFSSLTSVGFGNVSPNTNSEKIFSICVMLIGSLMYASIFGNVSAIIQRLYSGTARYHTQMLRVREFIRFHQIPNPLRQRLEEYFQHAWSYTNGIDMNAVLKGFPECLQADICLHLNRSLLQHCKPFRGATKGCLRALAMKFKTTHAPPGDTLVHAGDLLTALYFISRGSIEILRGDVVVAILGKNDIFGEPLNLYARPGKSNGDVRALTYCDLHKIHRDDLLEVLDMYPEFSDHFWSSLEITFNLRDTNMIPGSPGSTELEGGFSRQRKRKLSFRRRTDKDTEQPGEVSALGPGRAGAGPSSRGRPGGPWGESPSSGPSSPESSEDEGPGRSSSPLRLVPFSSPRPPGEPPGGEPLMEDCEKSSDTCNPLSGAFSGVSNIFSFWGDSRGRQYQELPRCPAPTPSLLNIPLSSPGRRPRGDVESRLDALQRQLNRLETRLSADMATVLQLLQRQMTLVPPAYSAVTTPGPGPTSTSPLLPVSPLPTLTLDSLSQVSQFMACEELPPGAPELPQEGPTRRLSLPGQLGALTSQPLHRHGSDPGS
row,SMILES,"hERG current change (%, negative = inhibition) at 1uM"
1,COc1cc(NC(=O)C/C(C)=N/NC(=O)C(OC)c2ccccc2)c(OC)cc1Cl (centres unmarked),0.8%
2,COc1ccc(Cl)c2sc(N(CCN(C)C)C(=O)c3ccc4c(c3)OCCO4)nc12.Cl,0.602%
3,O=C(CN1CCC(NC(=O)c2ccccc2Cl)CC1)NCc1ccccc1,9.16%
4,C=CCc1cc(/C=N/n2cnnc2)cc(OCC)c1O,11.7%
5,COc1cccc(-c2cc(C(=O)Nc3cccc(O)c3)no2)c1,15.1%
6,CCOC(=O)c1c(-c2ccco2)csc1NC(=O)COC(=O)c1cnccn1,19.1%
7,CCN1CCN(CC(=O)Nc2nc3ccc(OC)cc3s2)CC1.O=C(O)C(=O)O,-5.3%
8,Cc1cccc(C(=O)NCc2nnc(SC(C)C(=O)Nc3nnc(C)s3)n2C)c1 (centres unmarked),6.15%
9,NNC(=O)/C(=C/c1cccs1)NC(=O)c1ccccc1Cl,5.81%
10,CCn1cc(C(=O)O)c(=O)c2cc(F)c(N3CCN(C(=S)NC(=O)c4c(OC)cccc4OC)CC3)cc21,12.2%
11,CCOc1cc(NS(=O)(=O)c2ccc(NC(C)=O)cc2)c(OCC)cc1NC(=O)c1cccs1,13.5%
12,CN(Cc1ccc(F)cc1)C(=O)C(c1ccccc1)c1ccccc1,9.21%
13,O=C(O)[C@H](Cc1ccccc1)N1C(=O)c2ccncc2C1=O,19.2%
14,O=C1OC(Nc2nccs2)c2ccccc21 (centres unmarked),13.5%
15,CCCn1nc(C(=O)Nc2nc(-c3ccccn3)cs2)c2ccccc2c1=O,11.2%
16,CC(C)O.O=C(O)c1cc(S(=O)(=O)Nc2ccc(N3CCCCC3)cc2)ccc1Cl,9.06%
17,O=C(Nc1cccc(Cl)c1N1CCCC1)c1cccc(-c2cc3ccccc3oc2=O)c1,-1.8%
18,CCOC(=O)C1SC2(C(F)(F)F)CC1(O)c1c(C)cc(C)nc1O2 (centres unmarked),-1.85%
19,Cc1ccc(C)n1-c1ccc(NC(=O)c2ccccc2)cc1,1.19%
20,COC(=O)c1ccccc1NC(=O)c1ccc2c(c1)OCCO2,7.74%
21,O=C(CNC(=O)c1ccc(Cl)c([N+](=O)[O-])c1)OCN1C(=O)c2ccccc2C1=O,19.4%
22,CC(=O)Nc1cc(NC(C)=O)ncn1,11.4%
23,CC(=O)Nc1ccccc1-c1nn[nH]n1,1.42%

row,SMILES,"hERG current change (%, negative = inhibition) at 1uM"
1,Cc1sc2ncnc(SCC(=O)Nc3ncccc3O)c2c1C,7.42%
2,CC(C)c1ccccc1OCCNC(=O)c1cncc(Br)c1,-3.2%
3,COc1ccccc1CNC(=O)c1cccc2c1C(=O)N(Cc1cccnc1)C2,5.03%
4,COc1ccccc1/C=C(/C#N)C(=O)O,18.7%
5,Cc1cc(C)cc(C(=O)NC(CC(N)=O)c2ccc(NCC3CC3)c([N+](=O)[O-])c2)c1 (centres unmarked),-1.16%
6,Cc1ccc(-c2nc(N)sc2CC(=O)OCC(=O)NCCC(C)C)cc1,-1.99%
7,COc1ccc(N2CCN(c3ccc(S(=O)(=O)N(C(C)C)C(C)C)cn3)CC2)cc1,13.7%
8,Cc1cc(C)c2c(=O)[nH]c(SCC(=O)NCc3ccccc3)nc2n1,9.7%
9,CC(C)NCC(O)c1ccc2ccccc2c1.Cl (centres unmarked),12%
10,CCOC(=O)C1=C(N)Oc2c(c(=O)oc3ccccc23)C12C(=O)N(C)c1ccccc12 (centres unmarked),8.75%
11,O=C(O)c1ncn(Cc2ccccc2)c1C(=O)O,11.2%
12,CCOC(=O)C1CCCN(CC(O)COc2ccccc2C(C)=O)C1.Cl (centres unmarked),-6.92%
13,Cc1ccc2[nH]c(=O)c(CN3CCCCC3)c(-c3ccccc3)c2c1,-2.24%
14,Cc1ccc(C(=O)O)cc1-c1ccc(/C=C2\SC(=O)N(CC(=O)Nc3ccc4c(c3)OCO4)C2=O)o1,1.76%
15,c1cncc(-c2noc(CC3CCCCC3)n2)c1,4.18%
16,Oc1cccc(NC(=S)N=Nc2c(O)[nH]c3ccc(Br)cc23)c1,12.5%
17,COc1ccc(-n2nc(C)c3sc(C)nc3c2=O)cc1,11.1%
18,CN(Cc1ccon1)Cc1cn[nH]c1-c1ccc(-c2ccccc2)cc1,8.74%
19,NC(=O)C1CCN(C(=O)C2CC(=O)N(c3ccc(F)cc3)C2)CC1 (centres unmarked),13.6%
20,Cc1cc(C(=O)NP(=O)(N2CCOCC2)N2CCOCC2)c(C)n1-c1ccc(Br)cc1,12.9%
21,O=C1CC(c2ccccc2)n2nc(NS(=O)(=O)c3ccccc3)nc2N1 (centres unmarked),-1.49%
22,CN(Cc1c(F)cccc1Cl)C(=O)CCc1c[nH]c2ccccc12,7.64%
23,Cc1ccccc1NC(=S)N(Cc1ccco1)C(C)c1cccs1 (centres unmarked),4.51%

row,SMILES,"hERG current change (%, negative = inhibition) at 1uM"
1,Cc1cc(C)nc(N(C#N)Cc2ccccc2Cl)n1,7.42%
2,Cn1cc(C=C2C(=O)OC3(CCCCC3)OC2=O)c2ccccc21,19%
3,CCC1(c2ccccc2)NC(=S)N(c2cccc(C)c2C)N1 (centres unmarked),11%
4,C=CCNC(=O)c1c(CSc2ccc(Cl)cc2)noc1C(=O)NCc1ccccc1,0.625%
5,CC1(C)Cc2ccccc2C(=NC(Cc2ccccc2)C(=O)O)N1 (centres unmarked),8.45%
6,CCCn1nc(NS(=O)(=O)c2ccccc2[N+](=O)[O-])c2cc3ccccc3nc21,4.03%
7,CSCC(=O)N1CCC(n2nccc2NC(=O)CCCc2ccccc2)CC1,-11.1%
8,Cc1ccc(NC(=O)CNC(=O)OCc2ccccc2)cc1C,4.09%
9,COc1ccc(CC(=O)Nc2cccc(C(C)=O)c2)cc1S(=O)(=O)N1CCOCC1,17.1%
10,COc1ccc(/C=C/c2nnc(NC(=O)COc3ccccc3)s2)cc1,14%
11,COc1ccc2c(c1)sc1nc(-c3ccccc3)cn12,0.541%
12,COc1cc(CC(=O)Nc2nc(C)cs2)cc(OC)c1OC,10.9%
13,O=c1cnnc(Nc2ccc(F)cc2)[nH]1,5.98%
14,CCOc1ccccc1NC(=S)N(CCC(C)C)C1CCN(C(C)=O)CC1,11.3%
15,CN(CC(=O)Nc1ccccc1Br)C(=O)CNC(=O)c1cccs1,10.7%
16,COc1ccc(CN2CC(C(=O)NCCCN3CCN(Cc4ccccc4)CC3)CC2=O)cc1 (centres unmarked),-17.3%
17,O=C1CC(=O)NC(SCC(=O)Nc2ccccc2[N+](=O)[O-])=N1,11.2%
18,COc1ccc(NC(=O)C2C3C=CC4(CN(Cc5cccnc5)C(=O)C24)O3)c(OC)c1 (centres unmarked),10.1%
19,O=C(c1cccnc1)N1N=C(C2CC2)CC1(O)C(F)(F)F (centres unmarked),14.2%
20,CC(=O)NCCCC(=O)NC(CCC(=O)OCc1ccccc1)C(=O)OCc1ccccc1 (centres unmarked),7.22%
21,CN(CC(=O)N1CCCc2c1c(=O)oc1ccc(O)cc21)Cc1ccccc1,-38.4%
22,CCCCc1ccc(CC2S/C(=C(\C#N)C(=O)N3CCOCC3)N(c3ccccc3)C2=O)cc1 (centres unmarked),11.2%
23,Cc1ccccc1CSc1nc2n(n1)C(c1cccs1)C1=C(CCCC1=O)N2 (centres unmarked),5.9%

row,SMILES,"hERG current change (%, negative = inhibition) at 1uM"
1,Cc1ccc(-c2noc(CN3CCN(c4ccccc4F)CC3)n2)cc1,10.9%
2,COC(=O)c1sccc1NC(=S)Nc1cc(OC)ccc1OC,5.04%
3,Cc1nnc2n1CCCCC2,14.4%
4,Cn1c(=O)c(-c2ccccc2[N+](=O)[O-])c(Cl)c2ccccc21,4.96%
5,O=C(/C=C/Nc1ccccc1F)c1cccs1,9.7%
6,CSCC[C@H](N)C(=O)N1CCC(C(=O)N[C@@H](C)C(=O)NCc2ccc(F)cc2)CC1,4.39%
7,Cc1cnc(C(=O)OCC(=O)Nc2cc(Cl)cc(Cl)c2)cn1,23.8%
8,O=C(c1cccs1)N1CCN(c2ccc([N+](=O)[O-])cc2F)CC1,-21.3%
9,O=C(CNC(=O)C12CC3CC(CC(C3)C1)C2)NC1=NCCS1,12.3%
10,CCOC(=O)CON1C(=O)C(=O)N(OCC(=O)OCC)[C@H]2CCCC[C@H]21,11.8%
11,COCC(C)N=C1NN=C(c2cc(C)n(Cc3ccccc3Cl)c2C)CS1 (centres unmarked),4.93%
12,COc1ccc(S(=O)(=O)NCc2csc(-c3cccnc3)n2)cc1,4.72%
13,CCCCCC1CC(CC/C(C)=N/NC(N)=O)C(=O)O1 (centres unmarked),-5.45%
14,C=CCn1c(SCC(=O)NC2CCCCC2)nnc1C1CCCCC1,5.34%
15,O=C(NCCN1CCOCC1)c1ccc2c(c1)N(Cc1ccc(F)cc1)C(=O)c1ccccc1S2(=O)=O,13.2%
16,Cc1ccc(CCNC(=O)C2CCC(CNc3c(N4CCCC4)c(=O)c3=O)CC2)cc1 (centres unmarked),14.4%
17,O=[N+]([O-])c1cccc(C(=S)N2CCN(c3ccc(F)cc3)CC2)c1,2.44%
18,O=C(C1=NN[C@@H]2C(=O)N(c3cccc(F)c3)C(=O)[C@H]12)c1cnccn1,6.48%
19,N#Cc1cc(-c2ccccc2)cnc1Cl,9.01%
20,CCOC(=O)C(C)Oc1cccc2c(=O)n(CC(=O)N3CCc4ccccc43)ccc12 (centres unmarked),5.03%
